What all share (format): in vivo
One test has as its system 6C3 HED lymphosarcoma. Description: transplanted tumor in mice: 6C3 HED lymphosarcoma. Conditions: 2.5 mg/kg, every fourth day (three doses) from day 1 after inoculation, * = below 30, not statistically significant.
A further test concerns P1534(J). The test is described as follows: transplanted tumor in mice: P1534(J) leukemia. Conditions: 2.5 mg/kg, every fourth day (three doses), * = below 30, not statistically significant.
The test system of a further test is P388/V. The test is described as follows: transplanted tumor in mice: P388/V. Conditions: 2.5 mg/kg, every fourth day (three doses), * = below 30, not statistically significant. The procedure:
(§1) The bases of this invention and their salts preparable by the processes disclosed herein are active also in vivo against some but not all transplanted tumors in mice.
(§2) The following table--Table 2--gives the results of this experiment in which mice bearing the transplanted tumor were treated with a compound of this invention. In the table, column 1 gives the name of the compound; column 2, the name of the tumor; column 3, the dosage given; and column 4, the percent inhibition of tumor growth (I) or prolongation of life (PL). The following dosage regimen was employed: every fourth day (three doses) starting on the first day after inoculation.

In a further test the test system is P388/J. The test is described as follows: transplanted tumor in mice: P388/J leukemia. Conditions: 2.5 mg/kg, every fourth day (three doses), * = below 30, not statistically significant. As to the method: as §1, §2
In the above Table, 6C3 HED is a lymphosarcoma and P1534(J) and […]

Consider `CC[C@]1(O)C[C@H]2CN(CCc3c([nH]c4ccccc34)[C@@](C(=O)OC)(c3cc4c(cc3OC)N(C)[C@H]3[C@]5(OC(=O)N(CCSSCCNC(=O)OC)C5=O)[C@H](OC(C)=O)[C@]5(CC)C=CCN6CC[C@]43[C@@H]65)C2)C1` [Example 1, Vinblastine 3"-(β-[β-(methoxycarbonylamino)ethyldithio]ethyl)-3-spiro-5"-oxazolidine-2",4"-dione], for which the “Percent Inhibition of tumor growth (I)” value is on record as 12% in the test on 6C3 HED lymphosarcoma and 16% in the test with P1534(J). In the test with P388/V, the “Percent Prolongation of life (PL)” value is given as 38%.
As for `CC[C@]1(O)C[C@H]2CN(CCc3c([nH]c4ccccc34)[C@@](C(=O)OC)(c3cc4c(cc3OC)N(C)[C@H]3[C@]5(OC(=O)N(CCS)C5=O)[C@H](OC(C)=O)[C@]5(CC)C=CCN6CC[C@]43[C@@H]65)C2)C1` [Example 2, Vinblastine 3"-(β-thioethyl)-3-spiro-5"-oxazolidine-2",4"-dione], the “Percent Inhibition of tumor growth (I)” value in the test with 6C3 HED lymphosarcoma and with P1534(J) was 14% in each case. In addition, in the test with P388/V, the “Percent Prolongation of life (PL)” value is reported as 22%.
As to `CC[C@]1(O)C[C@H]2CN(CCc3c([nH]c4ccccc34)[C@@](C(=O)OC)(c3cc4c(cc3OC)N(C)[C@H]3[C@]5(OC(=O)N(CCSSCCN6C(=O)O[C@]7(C6=O)[C@H](OC(C)=O)[C@]6(CC)C=CCN8CC[C@@]9(c%10cc([C@@]%11(C(=O)OC)C[C@@H]%12CN(CCc%13c%11[nH]c%11ccccc%13%11)C[C@](O)(CC)C%12)c(OC)cc%10N(C)[C@@H]79)[C@@H]86)C5=O)[C@H](OC(C)=O)[C@]5(CC)C=CCN6CC[C@]43[C@@H]65)C2)C1` [Example 3, Bis-[β-(vinblastine-3-spiro-5"-oxazolidine-2",4"-dione-3"-yl)ethyl]disulfide], the figures for the “Percent Inhibition of tumor growth (I)” value with 6C3 HED lymphosarcoma and in the test on P1534(J) were 46% and 16%, respectively. The “Percent Prolongation of life (PL)” value in the test on P388/J amounted to 18%.

These data come from US4362664A, “Vinblastine oxazolidinedione disulfides and related compounds” (priority 1980, dated 1982).
